± gives the standard deviation of the averaged measurements. Laboratory Escherichia coli strains with one amino-acid change in an essential protein, pooled on minimal glucose agar with carbenicillin or gentamicin at twice the control MIC (plus kanamycin and chloramphenicol for the plasmids), 48 h. Fold change of barcode share against drug-free plates; higher = less susceptible. Active = above 20 in both replicates (the paper's putatively resistant). '<' = one read or none on drug, '>' = one read or none on a drug-free plate. Shares are relative, so most strains fall below 1 when a few take over. Listed are strains with at least 15 reads on both drug-free plates, and hits; most hits rest on fewer reference reads. Replicate rank correlation about 0.5. Edits are read from barcodes.
Biological target: Escherichia coli (laboratory strain)
Assay: barcode share on antibiotic plates over drug-free plates; higher = less susceptible
Experimental: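 A pool of E. coli strains, each edited to carry one amino-acid change in an essential protein, was grown for 48 h on minimal glucose agar with or without antibiotic; strain barcodes were sequenced; mean of two replicates.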

[1] = antibiotic: carbenicillin, 2× MIC (3.1 µg/mL)
[2] = antibiotic: gentamicin, 2× MIC (MIC 0.45 µg/mL)

Row | Protein | fold change of barcode share [1] | fold change of barcode share [2]
1 | asd I109A (protein) MKNVGFIGWRGMVGSVLMQRMVEERDFDAIRPVFFSTSQLGQAAPSFGGTTGTLQDAFDLEALKALDIIVTCQGGDYTNEIYPKLRESGWQGYWIDAASSLRMKDDAIAILDPVNQDVITDGLNNGIRTFVGGNCTVSLMLMSLGGLFANDLVDWVSVATYQAASGGGARHMRELLTQMGHLYGHVADELATPSSAILDIERKVTTLTRSGELPVDNFGVPLAGSLIPWIDKQLDNGQSREEWKGQAETNKILNTSSVIPVDGLCVRVGALRCHSQAFTIKLKKDVSIPTVEELLAAHNPWAKVVPNDREITMRELTPAAVTGTLTTPVGRLRKLNMGPEFLSAFTVGDQLLWGAAEPLRRMLRQLA | 0.433 ± 0.028 | 0.00889 ± 0.0076
2 | msbA V29A (protein) MHNDKDLSTWQTFRRLWPTIAPFKAGLIAAGVALILNAASDTFMLSLLKPLLDDGFGKTDRSVLVWMPLVVIGLMILRGITSYVSSYCISWVSGKVVMTMRRRLFGHMMGMPVSFFDKQSTGTLLSRITYDSEQVASSSSGALITVVREGASIIGLFIMMFYYSWQLSIILIVLAPIVSIAIRVVSKRFRNISKNMQNTMGQVTTSAEQMLKGHKEVLIFGGQEVETKRFDKVSNRMRLQGMKMVSASSISDPIIQLIASLALAFVLYAASFPSVMDSLTAGTITVVFSSMIALMRPLKSLTNVNAQFQRGMAACQTLFTILDSEQEKDEGKRVIERATGDVEFRNVTFTYPGRDVPALRNINLKIPAGKTVALVGRSGSGKSTIASLITRFYDIDEGEILMDGHDLREYTLASLRNQVALVSQNVHLFNDTVANNIAYARTEQYSREQIEEAARMAYAMDFINKMDNGLDTVIGENGVLLSGGQRQRIAIARALLRDSPILILDEATSALDTESERAIQAALDELQKNRTSLVIAHRLSTIEKADEIVVVEDGVIVERGTHNDLLEHRGVYAQLHKMQFGQ | 0.274 ± 0.082 | 0.0033 ± 0.0027
3 | msbA V29W (protein) MHNDKDLSTWQTFRRLWPTIAPFKAGLIWAGVALILNAASDTFMLSLLKPLLDDGFGKTDRSVLVWMPLVVIGLMILRGITSYVSSYCISWVSGKVVMTMRRRLFGHMMGMPVSFFDKQSTGTLLSRITYDSEQVASSSSGALITVVREGASIIGLFIMMFYYSWQLSIILIVLAPIVSIAIRVVSKRFRNISKNMQNTMGQVTTSAEQMLKGHKEVLIFGGQEVETKRFDKVSNRMRLQGMKMVSASSISDPIIQLIASLALAFVLYAASFPSVMDSLTAGTITVVFSSMIALMRPLKSLTNVNAQFQRGMAACQTLFTILDSEQEKDEGKRVIERATGDVEFRNVTFTYPGRDVPALRNINLKIPAGKTVALVGRSGSGKSTIASLITRFYDIDEGEILMDGHDLREYTLASLRNQVALVSQNVHLFNDTVANNIAYARTEQYSREQIEEAARMAYAMDFINKMDNGLDTVIGENGVLLSGGQRQRIAIARALLRDSPILILDEATSALDTESERAIQAALDELQKNRTSLVIAHRLSTIEKADEIVVVEDGVIVERGTHNDLLEHRGVYAQLHKMQFGQ | 0.228 ± 0.0039 | 0.00417 ± 0.0014
4 | msbA V29Q (protein) MHNDKDLSTWQTFRRLWPTIAPFKAGLIQAGVALILNAASDTFMLSLLKPLLDDGFGKTDRSVLVWMPLVVIGLMILRGITSYVSSYCISWVSGKVVMTMRRRLFGHMMGMPVSFFDKQSTGTLLSRITYDSEQVASSSSGALITVVREGASIIGLFIMMFYYSWQLSIILIVLAPIVSIAIRVVSKRFRNISKNMQNTMGQVTTSAEQMLKGHKEVLIFGGQEVETKRFDKVSNRMRLQGMKMVSASSISDPIIQLIASLALAFVLYAASFPSVMDSLTAGTITVVFSSMIALMRPLKSLTNVNAQFQRGMAACQTLFTILDSEQEKDEGKRVIERATGDVEFRNVTFTYPGRDVPALRNINLKIPAGKTVALVGRSGSGKSTIASLITRFYDIDEGEILMDGHDLREYTLASLRNQVALVSQNVHLFNDTVANNIAYARTEQYSREQIEEAARMAYAMDFINKMDNGLDTVIGENGVLLSGGQRQRIAIARALLRDSPILILDEATSALDTESERAIQAALDELQKNRTSLVIAHRLSTIEKADEIVVVEDGVIVERGTHNDLLEHRGVYAQLHKMQFGQ | 0.245 ± 0.031 | 0.00431 ± 0.0026
5 | msbA V29P (protein) MHNDKDLSTWQTFRRLWPTIAPFKAGLIPAGVALILNAASDTFMLSLLKPLLDDGFGKTDRSVLVWMPLVVIGLMILRGITSYVSSYCISWVSGKVVMTMRRRLFGHMMGMPVSFFDKQSTGTLLSRITYDSEQVASSSSGALITVVREGASIIGLFIMMFYYSWQLSIILIVLAPIVSIAIRVVSKRFRNISKNMQNTMGQVTTSAEQMLKGHKEVLIFGGQEVETKRFDKVSNRMRLQGMKMVSASSISDPIIQLIASLALAFVLYAASFPSVMDSLTAGTITVVFSSMIALMRPLKSLTNVNAQFQRGMAACQTLFTILDSEQEKDEGKRVIERATGDVEFRNVTFTYPGRDVPALRNINLKIPAGKTVALVGRSGSGKSTIASLITRFYDIDEGEILMDGHDLREYTLASLRNQVALVSQNVHLFNDTVANNIAYARTEQYSREQIEEAARMAYAMDFINKMDNGLDTVIGENGVLLSGGQRQRIAIARALLRDSPILILDEATSALDTESERAIQAALDELQKNRTSLVIAHRLSTIEKADEIVVVEDGVIVERGTHNDLLEHRGVYAQLHKMQFGQ | 0.515 ± 0.032 | –
6 | msbA I535A (protein) MHNDKDLSTWQTFRRLWPTIAPFKAGLIVAGVALILNAASDTFMLSLLKPLLDDGFGKTDRSVLVWMPLVVIGLMILRGITSYVSSYCISWVSGKVVMTMRRRLFGHMMGMPVSFFDKQSTGTLLSRITYDSEQVASSSSGALITVVREGASIIGLFIMMFYYSWQLSIILIVLAPIVSIAIRVVSKRFRNISKNMQNTMGQVTTSAEQMLKGHKEVLIFGGQEVETKRFDKVSNRMRLQGMKMVSASSISDPIIQLIASLALAFVLYAASFPSVMDSLTAGTITVVFSSMIALMRPLKSLTNVNAQFQRGMAACQTLFTILDSEQEKDEGKRVIERATGDVEFRNVTFTYPGRDVPALRNINLKIPAGKTVALVGRSGSGKSTIASLITRFYDIDEGEILMDGHDLREYTLASLRNQVALVSQNVHLFNDTVANNIAYARTEQYSREQIEEAARMAYAMDFINKMDNGLDTVIGENGVLLSGGQRQRIAIARALLRDSPILILDEATSALDTESERAIQAALDELQKNRTSLVAAHRLSTIEKADEIVVVEDGVIVERGTHNDLLEHRGVYAQLHKMQFGQ | 0.373 ± 0.19 | < 0.00806
7 | msbA V550A (protein) MHNDKDLSTWQTFRRLWPTIAPFKAGLIVAGVALILNAASDTFMLSLLKPLLDDGFGKTDRSVLVWMPLVVIGLMILRGITSYVSSYCISWVSGKVVMTMRRRLFGHMMGMPVSFFDKQSTGTLLSRITYDSEQVASSSSGALITVVREGASIIGLFIMMFYYSWQLSIILIVLAPIVSIAIRVVSKRFRNISKNMQNTMGQVTTSAEQMLKGHKEVLIFGGQEVETKRFDKVSNRMRLQGMKMVSASSISDPIIQLIASLALAFVLYAASFPSVMDSLTAGTITVVFSSMIALMRPLKSLTNVNAQFQRGMAACQTLFTILDSEQEKDEGKRVIERATGDVEFRNVTFTYPGRDVPALRNINLKIPAGKTVALVGRSGSGKSTIASLITRFYDIDEGEILMDGHDLREYTLASLRNQVALVSQNVHLFNDTVANNIAYARTEQYSREQIEEAARMAYAMDFINKMDNGLDTVIGENGVLLSGGQRQRIAIARALLRDSPILILDEATSALDTESERAIQAALDELQKNRTSLVIAHRLSTIEKADEIVAVEDGVIVERGTHNDLLEHRGVYAQLHKMQFGQ | 0.391 ± 0.32 | 0.0109 ± 0.01
8 | msbA V550Q (protein) MHNDKDLSTWQTFRRLWPTIAPFKAGLIVAGVALILNAASDTFMLSLLKPLLDDGFGKTDRSVLVWMPLVVIGLMILRGITSYVSSYCISWVSGKVVMTMRRRLFGHMMGMPVSFFDKQSTGTLLSRITYDSEQVASSSSGALITVVREGASIIGLFIMMFYYSWQLSIILIVLAPIVSIAIRVVSKRFRNISKNMQNTMGQVTTSAEQMLKGHKEVLIFGGQEVETKRFDKVSNRMRLQGMKMVSASSISDPIIQLIASLALAFVLYAASFPSVMDSLTAGTITVVFSSMIALMRPLKSLTNVNAQFQRGMAACQTLFTILDSEQEKDEGKRVIERATGDVEFRNVTFTYPGRDVPALRNINLKIPAGKTVALVGRSGSGKSTIASLITRFYDIDEGEILMDGHDLREYTLASLRNQVALVSQNVHLFNDTVANNIAYARTEQYSREQIEEAARMAYAMDFINKMDNGLDTVIGENGVLLSGGQRQRIAIARALLRDSPILILDEATSALDTESERAIQAALDELQKNRTSLVIAHRLSTIEKADEIVQVEDGVIVERGTHNDLLEHRGVYAQLHKMQFGQ | 0.371 ± 0.26 | < 0.0119
9 | msbA V550D (protein) MHNDKDLSTWQTFRRLWPTIAPFKAGLIVAGVALILNAASDTFMLSLLKPLLDDGFGKTDRSVLVWMPLVVIGLMILRGITSYVSSYCISWVSGKVVMTMRRRLFGHMMGMPVSFFDKQSTGTLLSRITYDSEQVASSSSGALITVVREGASIIGLFIMMFYYSWQLSIILIVLAPIVSIAIRVVSKRFRNISKNMQNTMGQVTTSAEQMLKGHKEVLIFGGQEVETKRFDKVSNRMRLQGMKMVSASSISDPIIQLIASLALAFVLYAASFPSVMDSLTAGTITVVFSSMIALMRPLKSLTNVNAQFQRGMAACQTLFTILDSEQEKDEGKRVIERATGDVEFRNVTFTYPGRDVPALRNINLKIPAGKTVALVGRSGSGKSTIASLITRFYDIDEGEILMDGHDLREYTLASLRNQVALVSQNVHLFNDTVANNIAYARTEQYSREQIEEAARMAYAMDFINKMDNGLDTVIGENGVLLSGGQRQRIAIARALLRDSPILILDEATSALDTESERAIQAALDELQKNRTSLVIAHRLSTIEKADEIVDVEDGVIVERGTHNDLLEHRGVYAQLHKMQFGQ | 0.3057 ± 0.0027 | < 0.0127

From the supplement of paper PMC11876631
